Data from patent US11660328B2, “GLP-2 analogs and peptibodies for administration before, during or after surgery” (TAKEDA PHARMACEUTICAL COMPANY LIMITED, priority 2017, dated 2023).

Test system: small intestine
Assay: Histology study of villi length and crypt depth (H&E sections, imagescope)
Format: in vivo, female CD-1 mice
Settings: after administration vs without treatment, FIGS. 1-3
Experimental: Various doses of GLP-2 peptibody B264 were analyzed to assess the pharmacodynamic plateau, with the primary endpoint a measurement of the small intestinal weight relative to the total body weight and a histology study of the length of villi. 11 groups of six female CD-1 mice each were formed. [table] For histology, four micron paraffin sections were prepared for H&E and Ki67 IHC staining. After whole slide scanning, an imagescope was used to measure villi length and crypt depth, and to analyze Ki67. The antibody against Ki67 is a rabbit antibody sold by Adcam®, catalog number ab 616667. The antibody was used at a working concentration of 1:100 and was detected using a Leica® Refine Kit. […] See, e.g., Example 13 of U.S. Provisional Application No. 62/548,601, filed Aug. 22, 2017 for more data and examples with respect to GLP-2 peptibody B264, GLP-2 peptibody […], and a GLP-2[[…]] peptide.

B1: GLP-2 peptibody B264: GLP-2 peptibody having the amino acid sequence of SEQ ID NO: 2 (GLP-2[A2G]-linker-IgG1 Fc fusion) (protein, listed as Homo sapiens)
chain: HGDGSFSDEMNTILDNLAARDFINWLIQTKITDGGGGG[letters of human IgG1 Fc with changes left out]
  crypt depth in the small intestine: increased crypt depth
Small intestine
  villus height: increased villus height
